Where “and” joins values, the source holds several entries; their conditions need not be identical. Equal entries are not always repeated. At least one read-out could not be matched to a standard name with certainty. Some results were stated once for a whole list of compounds, not compound by compound. For some of these results: At least one structure is not confirmed: it was looked up by name or label, or the drawing left a doubt.
Legend:
Assay type in all cases: cell-based
[1] = tested on: EOC 13.31 microglia cells; experiment: NO release inhibition in LPS/IFNγ stimulated microglia, concurrent treatment, Griess reaction at 24 hours (Example 6); settings: 50 μM, single replicates; for OD Values: Griess
Experimental: The purpose of this experiment was to screen compounds 3, 4, 21, 26, 51, 52, 66, and 78 for their ability to inhibit Nitric oxide release from microglia. […] EOC 13.31 microglia cells were plated into 96 well plates for 24 hours. Confluent cells were treated with 50 μM of the bis- and tris-dihydroxyaryl compounds either with or without stimulation at 1 pg/ml LPS, and 1 ng/ml IFNγ. NO release was measured at 24 hours using the Griess reaction which is a spectrophotometric measure of NO release (reagents from Promega).

[2] = tested on: EOC 13.31 microglia cells; experiment: Inhibition of NO release from microglia following 24 hours pretreatment (Example 10); settings: for OD values (printed under head μM NO release) / μM NO release: 50 uM pretreatment 24 hours, then LPS/IFNγ 48 hours, single replicates
Experimental: This experiment was designed to determine if pretreatment for 24 hours with bis- and tris-dihydroxyaryl compounds changes NO inhibition previously observed with concurrent exposure of bis- and tris-dihydroxyaryl compounds. […] This study seeks to determine if pretreatment with bis- and tris-dihydroxyaryl compounds increases NO release inhibition. EOC 13.31 microglia cells were plated at 1×10^6 cells/ml in 96 well plates. After 48 hours, confluent cells were exposed to 50 μM compound (stock 10 mM in DMSO) prepared in fresh cell culture media. After 24 hours, 10 μg/ml LPS and 10 ng/ml IFNγ was added to wells directly without a media change. Cells were incubated for a further 48 hours and nitric oxide release was measured using the Griess Reaction.

[3] = tested on: EOC 13.31 microglial cells; experiment: NO release inhibition screen in LPS/IFNγ stimulated microglia, Griess reaction at 48 hours (Example 7); settings: 50 uM + 10 μg/ml LPS/10 ng/ml IFNγ, single replicates
Experimental: In this experiment, additional bis- and tris-dihydroxyaryl compounds were screened for their ability to inhibit nitric oxide release from microglial cells. Microglial cells stimulated with LPS/IFNγ release nitric oxide. […] This is a continuation of screening experiments. EOC 13.31 microglial cells were plated into 96 well plates. At 24 hours and at confluency, cells were treated with 10 μg/ml LPS/10 ng/ml IFNγ+50 uM bis- and tris-dihydroxyaryl compounds.

[4] = Compound Only (without LPS/IFNγ)

| Structure (SMILES) | OD Values ([1]; Compound + LPS/IFNγ) | NO release ([1]; Compound + LPS/IFNγ) | OD Values [1, 4] | NO release [1, 4] | OD values (printed under head μM NO release) [2] | μM NO release [2] | OD values (printed under head μM NO release) [3] | μM NO release [3] | inhibition of NO release following pretreatment ([2]; 50 μM pretreatment) |
| --- | --- | --- | --- | --- | --- | --- | --- | --- | --- |
| O=C(N[C@@H]1CCCC[C@H]1NC(=O)c1ccc(O)c(O)c1)c1ccc(O)c(O)c1 (relative stereo) [Compound 26, N,N′-bis(3,4-dihydroxybenzoyl)-trans-1,2-diaminocyclohexane] | 0.169 and 0.168 and 0.174 | 14.6684 µM and 14.5408 µM and 15.3061 µM | 0.045 and 0.047 and 0.043 | 0.0000 µM and 0.2500 µM and -0.2500 µM |  |  |  |  |  |
| O=C(Nc1ccc(O)c(O)c1)c1ccc(O)c(O)c1 [Compound 51, 3,4-dihydroxybenzoic acid 3,4-dihydroxyanilide] | 0.209 and 0.218 and 0.221 | 19.7704 µM and 20.9184 µM and 21.3010 µM | 0.056 (2×) and 0.053 | 1.3750 uM (2×) and 1.0000 uM | 0.277 and 0.241 and 0.235 | 10.313 µM and 8.063 µM and 7.688 µM |  |  |  |
| Oc1ccc(CCc2ccc(O)c(O)c2)cc1O [Compound 4, 1,2-bis(3,4-dihydroxyphenyl)ethane] | 0.048 and 0.055 and 0.057 | 0.3750 µM and 1.2500 µM and 1.5000 µM | 0.052 and 0.058 and 0.051 | 0.8750 µM and 0.9729 µM and 0.7500 µM | 0.066 and 0.058 and 0.057 |  |  |  |  |
| O=C(C=Cc1ccc(O)c(O)c1)NCc1ccc(O)c(O)c1 [Compound 61, 3,4-dihydroxycinnamic acid 3,4-dihydroxybenzylamide] |  |  |  |  |  |  | 0.189 and 0.196 and 0.198 | 20.482 µM and 21.536 µM and 21.837 µM |  |
| O=C(NCc1ccc(O)c(O)c1)C(=Cc1ccc(O)c(O)c1)NC(=O)c1ccc(O)c(O)c1 [Compound 21, α-(3,4-dihydroxybenzamido)-3,4-dihydroxycinnamic acid 3,4-dihydroxybenzyl amide] | 0.159 and 0.175 and 0.189 | 13.3929 µM and 15.4337 µM and 17.2194 µM | 0.045 and 0.046 and 0.043 | 0.0000 µM and 0.1250 µM and -0.2500 µM | 0.166 and 0.160 and 0.158 | 3.500 µM and 3.125 µM and 2.933 µM |  |  |  |
| Cc1nc(-c2ccc(O)c(O)c2)cc(-c2ccc(O)c(O)c2)c1C#N [Compound 8, 4,6-bis(3,4-dihydroxyphenyl)-3-cyano-2-methylpyridine] |  |  |  |  |  |  | 0.216 and 0.218 and 0.228 | 24.548 µM and 24.849 µM and 26.398 µM |  |
| O=C(Nc1ccc(O)c(O)c1)C(=O)Nc1ccc(O)c(O)c1 [Compound 63, oxalic acid bis(3,4-dihydroxyanilide)] |  |  |  |  | 0.167 (2×) and 0.166 | 3.563 μM (2×) and 3.500 μM | 0.205 (2×) and 0.211 | 22.892 μM (2×) and 23.795 μM |  |
| O=C(NCc1ccc(O)c(O)c1)Nc1ccc(O)c(O)c1 [Compound 77, 1-(3,4-dihydroxyphenyl)-3-(3,4-dihydroxybenzyl)urea] |  |  |  |  | 0.110 (2×) and 0.136 | 0.120 μM (2×) and 1.625 μM | 0.219 and 0.211 and 0.215 | 25.000 µM and 23.795 µM and 24.398 µM |  |
| O=C(Nc1ccc(O)c(O)c1)Nc1ccc(O)c(O)c1 [Compound 76, 1,3-bis(3,4-dihydroxyphenyl)urea] |  |  |  |  | 0.187 and 0.177 and 0.191 | 4.813 µM and 4.188 µM and 5.063 µM | 0.214 and 0.202 and 0.216 | 24.247 µM and 22.440 µM and 24.548 µM |  |
| Oc1cc2ncc3cnc4cc(O)c(O)cc4c3c2cc1O [Compound 85, dibenzo[c,f][2,7]napthyridine-2,3,10,11-tetraol] |  |  |  |  | 0.117 and 0.127 and 0.130 | 0.540 µM and 1.140 µM and 1.320 µM | 0.22 and 0.192 and 0.214 | 25.155 µM and 20.934 µM and 24.247 µM |  |
| Oc1ccc(Cc2ccc(O)c(O)c2)cc1O [Compound 3, 3,4,3′,4′-tetrahydroxydiphenylmethane] |  |  |  |  |  |  |  |  | greater than 75% |
| O=C(CCC(=O)Nc1ccc(O)c(O)c1)Nc1ccc(O)c(O)c1 [Compound 66, succinic acid bis(3,4-dihydroxyanilide)] | 0.165 and 0.178 and 0.183 | 14.1582 µM and 15.8163 µM and 16.4541 µM | 0.052 and 0.054 and 0.049 | 0.8750 µM and 1.1250 µM and 0.5000 µM | 0.241 and 0.222 and 0.210 | 8.063 µM and 6.875 µM and 6.250 µM |  |  |  |
| O=C(CCc1ccc(O)c(O)c1)NCc1ccc(O)c(O)c1 [Compound 58, 3-(3,4-dihydroxyphenyl)propionic acid 3,4-dihydroxybenzylamide] |  |  |  |  | 0.180 and 0.205 and 0.206 | 4.375 µM and 5.938 µM and 6.000 µM | 0.236 and 0.219 and 0.233 | 27.640 µM and 25.000 µM and 27.174 µM |  |
| O=C(CCC(=O)NCc1ccc(O)c(O)c1)NCc1ccc(O)c(O)c1 [Compound 67, succinic acid bis(3,4-dihydroxybenzylamide)] |  |  |  |  | 0.242 and 0.214 and 0.204 | 8.125 µM and 6.375 µM and 5.875 µM | 0.117 and 0.152 and 0.104 | 9.455 µM and 14.910 µM and 7.372 µM |  |
| O=C(NCCc1ccc(O)c(O)c1)Nc1ccc(O)c(O)c1 [Compound 78, 1-(3,4-dihydroxyphenyl)-3-(3,4-dihydroxyphenethyl)urea] | 0.251 and 0.178 and 0.176 | 25.000 µM and 15.8163 µM and 15.5612 µM | 0.054 and 0.056 and 0.053 | 1.1250 µM and 1.3750 µM and 1.0000 µM | 0.245 and 0.210 and 0.206 | 8.313 µM and 6.125 µM and 6.000 µM |  |  |  |
| CN1C2CCC1C(Cc1ccc(O)c(O)c1)C(=O)C2Cc1ccc(O)c(O)c1 (stereo not shown) [Compound 19, 2,4-bis(3,4-dihydroxybenzyl)-3-tropinone] |  |  |  |  |  |  | 0.226 and 0.225 and 0.222 | 26.087 µM and 25.932 µM and 25.466 µM |  |
| O=C(c1ccc(O)c(O)c1)C(O)c1ccc(O)c(O)c1 (stereo not shown) [Compound 1, 3,4,3′,4′-tetrahydroxybenzoin] |  |  |  |  |  |  | 0.199 and 0.203 and 0.196 | 21.988 µM and 22.590 µM and 21.536 µM |  |
| Oc1ccc(CNCc2ccc(O)c(O)c2)cc1O [Compound 73, bis(3,4-dihydroxybenzyl)amine] |  |  |  |  | 0.072 and 0.066 and 0.065 |  | 0.064 and 0.06 and 0.085 | 1.393 µM and 0.964 µM and 4.545 µM |  |
| Oc1ccc(CN(Cc2ccc(O)c(O)c2)Cc2ccc(O)c(O)c2)cc1O [Compound 75, tris(3,4-dihydroxybenzyl)amine] |  |  |  |  | 0.237 and 0.248 and 0.234 | 7.813 µM and 8.500 µM and 7.625 µM | 0.217 and 0.192 and 0.215 | 24.699 µM and 20.934 µM and 24.398 µM |  |
| Oc1ccc(CN2CCN(Cc3ccc(O)c(O)c3)CC2)cc1O [Compound 9, 1,4-bis(3,4-dihydroxybenzyl)piperazine] |  |  |  |  |  |  | 0.216 and 0.233 (2×) | 24.548 μM and 27.174 μM (2×) |  |
| O=C(CCc1ccc(O)c(O)c1)Nc1ccc(O)c(O)c1 [Compound 57, 3-(3,4-dihydroxyphenyl)propionic acid 3,4-dihydroxyanilide] |  |  |  |  | 0.093 and 0.107 and 0.094 |  | 0.226 and 0.207 and 0.199 | 26.087 µM and 23.193 µM and 21.988 µM |  |
| O=C(c1ccc(O)c(O)c1)N1CCN(C(=O)c2ccc(O)c(O)c2)CC1 [Compound 23, 1,4-bis(3,4-dihydroxybenzoyl)piperazine] |  |  |  |  |  |  | 0.215 and 0.202 and 0.208 | 24.398 µM and 22.440 µM and 23.343 µM |  |
| Oc1ccc(CN[C@@H]2CCCC[C@H]2NCc2ccc(O)c(O)c2)cc1O (relative stereo) [Compound 12, N,N′-bis(3,4-dihydroxybenzyl)-trans-1,2-diaminocyclohexane] |  |  |  |  |  |  | 0.176 and 0.173 and 0.188 | 18.524 µM and 18.072 µM and 20.331 µM |  |
| O=C(NCc1ccc(O)c(O)c1)c1ccc(O)c(O)c1 [Compound 52, 3,4-dihydroxybenzoic acid 3,4-dihydroxybenzylamide] | 0.18 and 0.174 and 0.191 | 16.0714 µM and 15.3061 µM and 17.4745 µM | 0.044 and 0.047 and 0.043 | -0.1250 µM and 0.2500 µM and -0.2500 µM | 0.172 and 0.169 and 0.179 | 3.875 µM and 3.688 µM and 4.313 µM |  |  |  |

Source: patent US20070208087A1, “Compounds, compositions and methods for the treatment of inflammatory diseases” (priority 2001, published 2007)
